Source: PubChem BioAssay AID886 (National Center for Advancing Translational Sciences (NCATS), 2007)
The campaign covered roughly 73,000 compounds. About 2,500 (3.4%) were called active. The shares of active, inactive and inconclusive entries below differ from those in the screen. The call rests on the fitted dose curve; in most records, active means well fitted inhibition curve with a large enough effect; inconclusive means small, poorly fitted or top-dose-only effect; inactive means no such curve, though single readings can be large or run the other way. A potency beside an inconclusive call is a rough fit, not a confirmed value.
Further: nearly all actives have a fitted effect of over 60% in size.
On the % scale 0 is the no-effect control and ±100 the full control effect; potency means the concentration at half of the fitted maximal effect; tags describe the fitted curve by direction and shape.

These compounds were tested against 3-hydroxyacyl-CoA dehydrogenase type-2 (Homo sapiens) (UniProt Q99714) (assay: qHTS Assay for Inhibitors of HADH2 (Hydroxyacyl-Coenzyme A Dehydrogenase, Type II)). Settings: recombinant HADH2, NADH fluorescence, beta-hydroxybutyryl-CoA; activity change, negative = inhibition: at 57.1 µM (top of the series).
Chain of UniProt Q99714 (Q99714 whole entry, looked up): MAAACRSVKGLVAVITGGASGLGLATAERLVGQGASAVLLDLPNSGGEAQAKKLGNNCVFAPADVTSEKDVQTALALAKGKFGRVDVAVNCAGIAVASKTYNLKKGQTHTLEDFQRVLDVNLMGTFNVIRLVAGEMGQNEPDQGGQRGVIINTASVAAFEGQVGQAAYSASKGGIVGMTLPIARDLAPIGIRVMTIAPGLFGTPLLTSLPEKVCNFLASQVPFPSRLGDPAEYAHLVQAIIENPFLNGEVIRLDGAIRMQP
Chain of UniProt Q99714 (Q99714 whole entry, looked up): as above
Method in brief: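 His-tagged recombinant enzyme from E. coli, 20 nM, preincubated 15 min RT with compound; reaction started with 1 mM NAD+ and 90 uM beta-hydroxybutyryl-CoA in 100 mM Tris-HCl pH 9.0. NADH fluorescence (ex 360/em 450) read over 4 min; last-minus-first difference.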
In the case of `O=C(Cc1cc(=O)[nH]c(=O)[nH]1)N1CCC(Cc2ccccc2)CC1`, the “activity change, negative = inhibition” value is reported as inactive: -7.41%.
`COc1cc2c(cc1NC(=O)c1ccc3c(c1)OCO3)oc1ccccc12` was tested, and the Potency was active: 31.6 µM.
`COc1ccc(CCNC(=O)c2c(O)c3cccc4c3n(c2=O)CC4)cc1` was tested, and the “activity change, negative = inhibition” value was inactive: -6.29%.
`CC(C)(NO)/C(=N/O)c1cccs1` was tested, and the Potency was inconclusive: 10 µM [inhibitor, partial curve].
With `Cc1cccc(CNc2ccnc(-c3ccccc3CN(C)C)n2)c1` the “activity change, negative = inhibition” value was inactive: 9.31%.
With `CN1CCc2c(sc3c2c(=O)n(-c2ccccc2)c2nncn32)C1` the Potency was inconclusive: 2.51 µM [inhibitor, partial curve].
In the case of `CCOC(=O)N1CCN(C(=O)c2cccn3c(=O)c4sccc4nc23)CC1`, the Potency is reported as inconclusive: 39.8 µM [inhibitor, single point].
In the case of `CCOC(=O)c1c(C)[nH]c(C)c1C(=O)CSc1nnc(-c2ccncc2)n1C`, the “activity change, negative = inhibition” value is reported as inactive: -8.1%.
With `FC(F)(F)c1cccc(-c2nc3nc(Cl)c(Cl)nc3[nH]2)c1` the activity change, negative = inhibition was inactive: -25.2% [at 11.4 µM].
In the case of `Cc1ccc(NC(=O)C2CC(=O)NC(Nc3cccc(C)c3)=N2)cc1` (centres undefined), the Potency is reported as inconclusive: 20 µM [inhibitor, partial curve].
`COc1ccc(OC)c(Nc2ncnc3c2cnn3-c2ccccc2)c1` was tested, and the Potency was inconclusive: 0.0316 µM [inhibitor, full curve, poor fit].
`CCOc1cc(Br)c(C(=O)O)cc1OCC` was tested, and the Potency was inconclusive: 20 µM [inhibitor, partial curve].
With `COc1ccc2c(c1)CN([C@H](C)[C@@H]1CC[C@@H]3[C@H]4CC[C@H]5C[C@@H](O)CC[C@@]5(C)[C@H]4CC[C@]31C)CO2` the Potency was inconclusive: 7.94 µM [inhibitor, single point].
In the case of `Cc1ccc(S(=O)(=O)Nc2nsc(N)n2)cc1`, the Potency is reported as inconclusive: 6.31 µM [inhibitor, partial curve].
In the case of `CCOC(=O)N1CCN(C(=O)CCCn2nc(C)c3sc4ccccc4c3c2=O)CC1`, the “activity change, negative = inhibition” value is reported as inactive: -6.46%.
`O=C(COC(=O)Cc1ccc(S(=O)(=O)N2CCCCC2)s1)Nc1ccc2c(c1)OCO2` was tested, and the Potency was inconclusive: 25.1 µM [inhibitor, single point].
With `Cc1ccccc1-c1nccc(NCc2cccnc2)n1` the Potency was inconclusive: 39.8 µM [inhibitor, single point].
With `O=C(c1cnccn1)N1CCC2(CC1)CCN(c1cccc(-c3ccccc3)c1)CC2` the “activity change, negative = inhibition” value was inactive: 2.44%.
In the case of `CC(Sc1nc(N)cc(=O)[nH]1)C(=O)NC1CCCCC1` (centres undefined), the Potency is reported as inconclusive: 6.31 µM [inhibitor, single point].
With `S=C(S)NCCN1CCNCC1` the Potency was active: 3.16 µM.
`CCOC(=O)c1sc2nc(C)cc(C)c2c1N` was tested, and the Potency was active: 25.1 µM.
With `COc1ccc(-n2ncc3c(NCc4ccccn4)ncnc32)cc1` the Potency was inconclusive: 7.94 µM [inhibitor, single point].
With `COc1ccc(-c2cc(C(=O)Nc3ccccc3SC)no2)cc1OC` the “activity change, negative = inhibition” value was inactive: -30%.
For `COC(=O)C1=C(C)NC2=C(C(=O)CCC2)C1c1cccc(C)n1` (centres undefined), the Potency was inconclusive: 25.1 µM [inhibitor, single point].
For `Cc1c(C(=O)NCc2cccnc2)oc2ccc(S(=O)(=O)N3CCCC(C)C3)cc12` (centres undefined), the “activity change, negative = inhibition” value was inactive: 13.8%.
`O=C(CN1CCCC1)Nc1ccc(-c2nc3cc(NC(=O)CN4CCCC4)ccc3o2)cc1` was tested, and the Potency was inconclusive: 31.6 µM [inhibitor, single point].
For `CCOC(=O)C(CC)Sc1nc2c(c(=O)[nH]c(=O)n2C)n1C/C=C(/C)Cl` (centres undefined), the Potency was inconclusive: 12.6 µM [inhibitor, partial curve].
With `COc1cc(OC)cc(C(=O)NCC2CCCO2)c1` (centres undefined) the “activity change, negative = inhibition” value was inactive: 0.401%.
With `CCOC(=O)C1CCN(c2ncnc3c2[nH]c2cccc(OC)c23)CC1` the Potency was active: 31.6 µM.
For `O=C(c1ccc2snnc2c1)N1CCOCC1`, the “activity change, negative = inhibition” value was inactive: -4.5%.
`Cc1ccc(-c2nc(=S)c3c(n2CCN2CCOCC2)CC(C)(C)OC3)cc1` was tested, and the Potency was inconclusive: 31.6 µM [inhibitor, single point].
In the case of `Cn1cc(S(=O)(=O)CC(=O)Nc2ccc3c(c2)OCO3)c2ccccc21`, the Potency is reported as inconclusive: 25.1 µM [inhibitor, partial curve].
`O=C(/C=C/Nc1cccc(O)c1)c1ccccc1` was tested, and the Potency was inconclusive: 25.1 µM [inhibitor, partial curve].
In the case of `Cc1csc(NC(=O)c2cc3c(s2)-c2ccccc2OC3)n1`, the Potency is reported as active: 31.6 µM.
With `O=C(CN1CCN(S(=O)(=O)c2ccc(Br)cc2)CC1)Nc1ccc2c(c1)OCO2` the “activity change, negative = inhibition” value was inactive: 10.1%.
`COc1ccc(CCn2c(-c3ccco3)nc3nc4ccccc4nc32)cc1` was tested, and the Potency was inconclusive: 10 µM [inhibitor, partial curve].
For `COc1ccc(-c2nn3c(-c4ccccc4)nnc3s2)cc1OC`, the Potency was inconclusive: 31.6 µM [inhibitor, single point].
In the case of `CCOc1cc(N2CCOCC2)c(OCC)cc1NC(=O)CN1CCc2ccccc2C1`, the Potency is reported as inconclusive: 7.94 µM [inhibitor, single point].
For `O=S(=O)(Nc1ncnc2sc3c(c12)CCC3)c1ccc(Cl)s1`, the Potency was inconclusive: 25.1 µM [inhibitor, single point].
With `COc1ccc(C(=O)Nc2c(N)nc(SCC(=O)N3CCC(C)CC3)[nH]c2=O)cc1OC` the Potency was inconclusive: 25.1 µM [inhibitor, single point].
`O=C(NCC(c1cccnc1)N1CCOCC1)c1ccc2c(c1)OCO2` (centres undefined) was tested, and the “activity change, negative = inhibition” value was inactive: 0.997%.
With `O=C(Nc1cccc(-c2cn3cccnc3n2)c1)c1ccc2c(c1)OCO2` the Potency was inconclusive: 5.01 µM [inhibitor, single point].
`CCOC(=O)COn1c(=O)c(=O)n(O)c2ccccc21` was tested, and the Potency was inconclusive: 5.01 µM [inhibitor, single point].
For `COCCSc1ccccc1C(=O)Nc1nccs1`, the Potency was inconclusive: 31.6 µM [inhibitor, single point].
With `COc1cc(C2Nc3ccc4ncccc4c3C3=C2C(=O)CCC3)cc(OC)c1O` (centres undefined) the Potency was inconclusive: 25.1 µM [inhibitor, partial curve].
In the case of `Nc1c(C(=O)N2CCOCC2)sc(=S)n1-c1ccccc1`, the Potency is reported as active: 1.26 µM.
`Cc1ccc(Cl)cc1NC(=O)c1ocnc1C` was tested, and the Potency was inconclusive: 39.8 µM [inhibitor, single point].
In the case of `N#Cc1c(N)nc2c(c1-c1ccc3c(c1)OCO3)CCCCCC2`, the Potency is reported as active: 31.6 µM.
For `c1ccc2[nH]c(-c3nc4ccccc4[nH]3)nc2c1`, the Potency was inconclusive: 7.94 µM [inhibitor, single point].
In the case of `O=C1OCCC1Sc1nc2ccccc2[nH]1` (centres undefined), the “activity change, negative = inhibition” value is reported as inactive: -9.9%.
In the case of `O=C(CN1CCOc2ccccc21)N1CCCC1`, the “activity change, negative = inhibition” value is reported as inactive: 4.65%.
For `COc1cccc(C2CC(=O)Nc3cc4c(cc32)OCCO4)c1OC(C)C` (centres undefined), the Potency was inconclusive: 15.8 µM [inhibitor, partial curve].
For `Cc1nc(C)c(C(=O)Nc2ccc(Oc3ccccc3)cc2)o1`, the Potency was inconclusive: 25.1 µM [inhibitor, partial curve].
With `N#Cc1c(NC(=O)c2ccc(Cn3cc(Br)cn3)o2)sc2c1CCCCCC2` the Potency was active: 15.8 µM.
`COc1ccc(NC(=O)c2cc(-c3ccc(O)cc3)on2)cc1OC` was tested, and the Potency was inconclusive: 12.6 µM [inhibitor, partial curve].
In the case of `CNC(=O)c1ccc(-c2sc3nc(N4CCOCC4)c4c(c3c2N)CCCC4)o1`, the activity change, negative = inhibition is reported as inactive: -11.4% [at 11.4 µM].
For `COc1ccc(-c2cc(C(F)F)n3ncc(C(=O)NCC4CCCO4)c3n2)cc1` (centres undefined), the Potency was active: 25.1 µM.
`Cc1nnc(SCC(=O)NCc2ccco2)[nH]c1=O` was tested, and the Potency was inconclusive: 25.1 µM [inhibitor, partial curve].
`Cc1nn(CCc2nc(-c3ccco3)cs2)c2[nH]c(=O)cc(C(F)(F)F)c12` was tested, and the Potency was active: 1.58 µM.
In the case of `O=C(CCn1c(=O)c2sccc2n(CC(=O)OCc2ccccc2)c1=O)NCc1ccco1`, the “activity change, negative = inhibition” value is reported as inactive: -0.612%.
`CCOC(=O)N1CCC(NC(=O)c2ccc3c(c2)sc2nc(-c4cccc(OC)c4)cn23)CC1` was tested, and the Potency was inconclusive: 39.8 µM [inhibitor, single point].
In the case of `COc1ccc(CNc2ncncc2-c2ccc(N(C)C)cc2)c(OC)c1`, the Potency is reported as inconclusive: 39.8 µM [inhibitor, single point].
With `COC(=O)c1ccc(CSc2ncnc3c2nnn3-c2ccc(F)cc2)o1` the “activity change, negative = inhibition” value was inactive: 7.29%.
In the case of `Cc1nc(NCc2ccco2)c(C#N)c2c1COC(C)(C)C2`, the Potency is reported as active: 3.16 µM.
In the case of `CCCCN(CC)CCNC(=O)c1cc2c(=O)n(C)c3ccccc3c2n1C`, the Potency is reported as inconclusive: 31.6 µM [inhibitor, single point].
With `CC(C)CN(C(=O)COC(=O)c1ccc2c(c1)NC(=O)CS2)C1CCS(=O)(=O)C1` (centres undefined) the Potency was inconclusive: 39.8 µM [inhibitor, single point].
`CCOC(=O)C1CCN(S(=O)(=O)c2cccc(-c3cn4cccc(C)c4n3)c2)CC1` was tested, and the Potency was inconclusive: 31.6 µM [inhibitor, single point].
In the case of `Cc1ccc2c(c1)NC(=O)C(CC(=O)NCCN(C)C)O2` (centres undefined), the Potency is reported as inconclusive: 10 µM [inhibitor, partial curve].
For `CCOC(=O)c1ccc2c(c1)nc(SC/C(O)=C(\C#N)c1nc3ccccc3[nH]1)n2CC`, the “activity change, negative = inhibition” value was inactive: -19.3%.
`Nc1ccc2nc3n(c(=O)c2c1)CCC3` was tested, and the Potency was active: 25.1 µM.
`COc1ccccc1Nc1ncnc2c1oc1ccccc12` was tested, and the Potency was inconclusive: 39.8 µM [inhibitor, single point].
`Cc1nc2c(c(=O)n1Cc1ccco1)c1nc3ccccc3nc1n2Cc1ccccc1` was tested, and the Potency was active: 25.1 µM.
For `CC1Cc2ccccc2N1C(=O)C1CCCN(S(=O)(=O)c2cccc3nsnc23)C1` (centres undefined), the Potency was inconclusive: 31.6 µM [inhibitor, single point].
In the case of `COc1ccc2cccc(N3CCN(CCNC(=O)c4ccc(F)cc4)CC3)c2c1`, the Potency is reported as active: 31.6 µM.
